Measurements from patent US20260098078A1 (KEROS THERAPEUTICS, published 2026).

T1: Activin A (UniProt P08476 311-426)
T1 sequence (looked up): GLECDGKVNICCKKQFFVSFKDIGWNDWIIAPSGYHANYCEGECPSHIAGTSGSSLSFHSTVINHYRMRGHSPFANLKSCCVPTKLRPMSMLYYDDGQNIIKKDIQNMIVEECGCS

T2: Activin B (UniProt P09529 293-407)
T2 sequence (looked up): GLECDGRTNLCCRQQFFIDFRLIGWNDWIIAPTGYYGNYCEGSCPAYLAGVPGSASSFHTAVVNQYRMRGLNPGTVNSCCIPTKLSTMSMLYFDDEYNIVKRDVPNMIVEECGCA

T3: growth differentiation factor 11 (GDF-11) (UniProt O95390 299-407)
T3 sequence (looked up): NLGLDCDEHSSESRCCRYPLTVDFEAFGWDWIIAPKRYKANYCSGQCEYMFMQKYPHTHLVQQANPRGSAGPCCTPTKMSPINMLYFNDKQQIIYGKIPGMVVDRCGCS

T4: BMP-9 (UniProt Q9UK05 320-429)
T4 sequence (looked up): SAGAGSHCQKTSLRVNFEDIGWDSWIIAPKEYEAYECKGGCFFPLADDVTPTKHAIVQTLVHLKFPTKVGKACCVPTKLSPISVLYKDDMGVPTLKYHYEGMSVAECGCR

T5: BMP-10 (UniProt O95393 317-424)
T5 sequence (looked up): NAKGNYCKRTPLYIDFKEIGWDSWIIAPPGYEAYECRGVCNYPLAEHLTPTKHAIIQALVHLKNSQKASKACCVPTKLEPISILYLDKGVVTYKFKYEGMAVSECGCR


Legend:
[1] = molecular target: T1, Activin A; assay: cell-based or functional assay
[2] = molecular target: T2, Activin B; assay: cell-based or functional assay
[3] = molecular target: T3, growth differentiation factor 11 …; assay: cell-based or functional assay
[4] = molecular target: T4, BMP-9; assay: cell-based or functional assay
[5] = molecular target: T5, BMP-10; assay: cell-based or functional assay
[6] = molecular target: T1, Activin A; assay: SPR (Biacore 3000), Fc fusion captured by anti-human IgG, ligand injected
Method: (§1) The GE Biacore 3000 was used to measure the kinetics of the interactions between the ActRII- and chimera-Fc proteins and Activin A/Activin B/growth differentiation factor 11 (GDF-11)/BMP-9/BMP-10. Anti-human capture antibody was immobilized on all four flow cells of a CM4 or CM5 chip using the reagents and protocol in the Biacore Human Antibody Capture Kit (GE Life Sciences). Briefly, anti-human IgG was diluted to 25 μg/mL in immobilization buffer. The carboxylated surface of the sensor was activated by injecting a mixture of EDC and NHS. The anti-human IgG was injected into the activated sensor chip flow cells at 10 mL/min for a total of 7 minutes until the chip had reached an immobilization level of 9000 response units (RU). Ethanolamine was injected to deactivate the sensor surfaces. Flow cell 1 was left empty and served as a reference cell to measure and subtract any nonspecific binding. The ActRII- and chimera-Fc proteins were captured in flow cells 2-4 to a maximum analyte binding response of 100 resonance units. This was done by injecting between 5-10 mL of the ActRII- and chimera-FC proteins into the flow cells at a concentration of 2 μg/mL until 200 RU. Each ligand was run in a duplicate concentration series. The data was analyzed using Scrubber2 by BioLogic Software to calculate the KD of each interaction (Table 6).

[7] = molecular target: T2, Activin B; assay: as above
Method: as §1

[8] = molecular target: T3, growth differentiation factor 11 …; assay: as above
Method: as §1

[9] = molecular target: T4, BMP-9; assay: as above
Method: as §1

[10] = molecular target: T5, BMP-10; assay: as above
Method: as §1

Row | Binder | IC50, inhibition of SBE-Luciferase reporter response (HEK293) [1] | IC50, inhibition of SBE-Luciferase reporter response (HEK293) [2] | IC50, inhibition of SBE-Luciferase reporter response (HEK293) [3] | IC50, inhibition of BRE-Luciferase reporter response (C2C12) [4] | IC50, inhibition of BRE-Luciferase reporter response (C2C12) [5] | Kd [6] | Kd [7] | Kd [8] | Kd [9] | Kd [10]
1 | ActRIIA-Fc (SEQ ID NO: 105) (Fc fusion, Expressed in HEK293 or CHO cells, purified on protein A) GAILGRSETQECLFFNANWEKDRTNQTGVEPCYGDKDKRRHCFATWKNISGSIEIVKQGCWLDDINCYDRTDCVEKKDSPEVYFCCCEGNMCNEKFSYFPEMEVTQPTSGGG[in this place human IgG1 Fc] | 0.39 µg/mL | 0.214 µg/mL | 0.39 µg/mL | 215 µg/mL | 0.749 µg/mL | 1 nM | 0.373 nM | 0.081 nM | 25 nM | 0.115 nM
2 | ActRIIB-Fc (SEQ ID NO: 106) (Fc fusion) GRGEAETRECIYYNANWELERTNQSGLERCEGEQDKRLHCYASWRNSSGTIELVKKGCWLDDFNCYDRQECVATEENPQVYFCCCEGNFCNERFTHLPEAGGPEVTYEPPPTAPTGGG[in this place human IgG1 Fc] | 0.065 µg/mL | 0.231 µg/mL | 0.138 µg/mL | 0.2 µg/mL | 0.0178 µg/mL | 0.063 nM | 0.023 nM | 0.115 nM | 0.278 nM | 0.067 nM
3 | Chimera 1-Fc (SEQ ID NO: 107) (Fc fusion) GAILGRAETRECIYYNANWELERTNQSGLERCEGEQDKRLHCYASWRNSSGTIEIVKQGCWLDDINCYDRTDCVATEENPQVYFCCCEGNMCNEKFSYFPEMEVTQPTSGGG[in this place human IgG1 Fc] | 0.0692 µg/mL | 0.072 µg/mL | 0.0372 µg/mL | 27.2 µg/mL | 0.0116 µg/mL | 0.052 nM | 0.051 nM | 0.009 nM | 1.8 nM | 0.037 nM
4 | Chimera 1/2b-Fc (SEQ ID NO: 216) (Fc fusion, also called Chimera ½b-Fc) GAILGRSETQECIYYNANWELERTNQSGLERCEGEQDKRLHCYASWRNSSGTIEIVKQGCWLDDFNCYDRTDCVEKKDSPQVYFCCCEGNMCNEKFSYFPEMEVTQPTSGGG[in this place human IgG1 Fc] | 0.061 µg/mL | 0.15 µg/mL | 0.038 µg/mL | 3.2 µg/mL | – | 0.017 nM | < 0.002 nM | 0.004 nM | 0.82 nM | –
5 | Chimera 2 I65F E81Q-Fc (SEQ ID NO: 110) (Fc fusion, also called Chimera 2 165F E81Q-Fc) GRGEAETRECIYYNANWELERTNQSGLERCEGEQDKRLHCYASWRNSSGTIEIVKQGCWLDDFNCYDRTDCVEKKDSPQVYFCCCEGNMCNEKFSYFPEMEVTQPTSGGG[in this place human IgG1 Fc] | 0.104 µg/mL | 0.03 µg/mL | 0.118 µg/mL | 5 µg/mL | 0.0109 µg/mL | 0.106 nM | 0.015 nM | 0.015 nM | 0.704 nM | 0.031 nM
6 | Chimera 2 E81Q-Fc (SEQ ID NO: 109) (Fc fusion) GRGEAETRECIYYNANWELERTNQSGLERCEGEQDKRLHCYASWRNSSGTIEIVKQGCWLDDINCYDRTDCVEKKDSPQVYFCCCEGNMCNEKFSYFPEMEVTQPTSGGG[in this place human IgG1 Fc] | 0.0783 µg/mL | 0.0382 µg/mL | 0.0502 µg/mL | 44.2 µg/mL | 0.0067 µg/mL | 0.042 nM | 0.024 nM | 0.007 nM | 3.7 nM | 0.005 nM
7 | Chimera 2-Fc (SEQ ID NO: 108) (Fc fusion) GRGEAETRECIYYNANWELERTNQSGLERCEGEQDKRLHCYASWRNSSGTIEIVKQGCWLDDINCYDRTDCVEKKDSPEVYFCCCEGNMCNEKFSYFPEMEVTQPTSGGG[in this place human IgG1 Fc] | 0.117 µg/mL | 0.0218 µg/mL | 0.0548 µg/mL | 14.2 µg/mL | 0.0069 µg/mL | 0.296 nM | 0.008 nM | 0.005 nM | 0.695 nM | 0.02 nM
8 | Chimera 3-Fc (SEQ ID NO: 213) (Fc fusion) GRGEAETRECIYYNANWELERTNQSGLERCEGEQDKRRHCFATWKNISGSIEIVKQGCWLDDFNCYDRTDCVEKKDSPQVYFCCCEGNMCNEKFSYFPEMEVTQPTSGGG[in this place human IgG1 Fc] | 0.091 µg/mL | 0.074 µg/mL | 0.034 µg/mL | 5.8 µg/mL | – | 0.056 nM | < 0.002 nM | 0.013 nM | 1.6 nM | –
9 | Chimera 4-Fc (SEQ ID NO: 217) (Fc fusion) GRGEAETRECIYYNANWELERTNQSGLERCEGEQDKRLHCYASWRNSSGTIELVKKGCWLDDFNCYDRQECVATKDSPEVYFCCCEGNMCNEKFSYFPEMEVTQPTSGGG[in this place human IgG1 Fc] | 0.17 µg/mL | 0.094 µg/mL | 0.041 µg/mL | 1.3 µg/mL | – | 0.048 nM | < 0.002 nM | 0.0018 nM | 0.2 nM | –
10 | Chimera 1/2-Fc (SEQ ID NO: 215) (Fc fusion) GAILGRAETRECIYYNANWELERTNQSGLERCEGEQDKRLHCYASWRNSSGTIEIVKQGCWLDDFNCYDRTDCVEKKDSPQVYFCCCEGNMCNEKFSYFPEMEVTQPTSGGG[in this place human IgG1 Fc] | – | 0.089 µg/mL | – | 7.6 µg/mL | – | – | – | – | – | –
11 | Chimera 5-Fc (SEQ ID NO: 218) (Fc fusion) GRGEAETRECIYYNANWELERTNQSGLERCEGEQDKRLHCYASWRNSSGTIELVKKGCWLDDFNCYDRQECVATKENPQVYFCCCEGNMCNEKFSYFPEMEVTQPTSGGG[in this place human IgG1 Fc] | – | 0.18 µg/mL | – | > 50 µg/mL | – | – | – | – | – | –
12 | Chimera 2 I65E N66T E81Q-Fc (SEQ ID NO: 214) (Fc fusion) GRGEAETRECIYYNANWELERTNQSGLERCEGEQDKRLHCYASWRNSSGTIEIVKQGCWLDDETCYDRTDCVEKKDSPQVYFCCCEGNMCNEKFSYFPEMEVTQPTSGGG[in this place human IgG1 Fc] | – | 0.079 µg/mL | – | > 50 µg/mL | – | – | – | – | – | –
13 | Chimera 2 D37R I65F E81Q-Fc (SEQ ID NO: 263) (Fc fusion) GRGEAETRECIYYNANWELERTNQSGLERCEGEQRKRLHCYASWRNSSGTIEIVKQGCWLDDFNCYDRTDCVEKKDSPQVYFCCCEGNMCNEKFSYFPEMEVTQPTSGGG[in this place human IgG1 Fc] | – | > 0.5 µg/mL | – | > 50 µg/mL | – | – | – | – | – | –
